This is an account of results in PubChem BioAssay AID328 (DTP/NCI, 2004).

Molecules are shown by their SMILES. Toxic doses and inconclusive results are not listed. Not every entry of the source has a single result; some have several. The list is limited to them. An entry can have further records. Values given together differ, and nothing given here explains why; some may be repeats, others may stem from another dose, organism or construct than stated.

The test system of the assay is BDF1 mice, P388 leukemia ip, median survival T/C. The assay can be described thus: NCI In Vivo Anticancer Drug Screen. Data for tumor model P388 Leukemia (intraperitoneal) in B6D2F1 (BDF1) mice. To be noted: endpoint: median survival time, higher = longer survival. The method, boiled down:
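Survival ratio, drug arm over vehicle arm, in mice with a transplanted tumour.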

The mark [1] stands for this setting: dose: 0.25 mg/kg/injection, schedule: Q01DX009 (ip), vehicle: water.

With `CCCCOc1ccc(C(=O)N/N=C(\C)[C@]2(O)Cc3c(O)c4c(c(O)c3[C@@H](OC3CC(N)C(O)C(C)O3)C2)C(=O)c2c(OC)cccc2C4=O)cc1` (stereo partly specified), the T/C is, setting by setting: under setting [1], 96 % of control and 153 % of control; (dose: 0.5 mg/kg/injection, schedule: Q01DX009 (ip), vehicle: water) 114 % of control and 154 % of control.

On to `NC(CSCc1ccccc1)CSCc1ccccc1`, for which the T/C (dose: 3.12 mg/kg/injection, schedule: Q04DX003 (ip), vehicle: saline) was 87 % of control, 103 % of control, 155 % of control.

Consider `O=C(NP(=O)(N1CC1)N1CC1)c1cc(I)ccc1I`, for which the T/C reads like this: (dose: 2.0 mg/kg/injection, schedule: Q01DX009 (ip), vehicle: saline) 101 % of control and 191 % of control; (dose: 64.0 mg/kg/injection, schedule: Q01DX009 (ip), vehicle: saline) 87 % of control and 270 % of control.

On to `CCC1(O)CC(OC2CC(N(C)C)C(OC3CC4OC5CC(=O)C(C)OC5OC4C(C)O3)C(C)O2)c2c(cc3c(c2O)C(=O)c2c(O)ccc(O)c2C3=O)C1C(=O)OC` (stereo unspecified), for which the T/C is recorded as 113 % of control, 150 % of control, 160 % of control (dose: 3.0 mg/kg/injection, schedule: Q01DX001 (ip), vehicle: saline) and 113 % of control, 150 % of control, 180 % of control (dose: 6.0 mg/kg/injection, schedule: Q01DX001 (ip), vehicle: saline).

Regarding `COc1cc2c[n+](C)c3c4cc(OC)c(OC)cc4ccc3c2cc1OC`, the T/C (dose: 200.0 mg/kg/injection, schedule: Q04DX003 (ip), vehicle: water) was 116 % of control and 174 % of control.

With `COc1cc(O)c2c(c1)C(=O)c1cc3c(c(O)c1C2=O)C(OC1OC(C)C(O)C(O)C1OC)C(OC)C(C)(O)C3=O` (stereo unspecified), the T/C (dose: 150.0 mg/kg/injection, schedule: Q01DX010 (ip), vehicle: saline) is recorded as 90 % of control, 116 % of control, 155 % of control.

Regarding `CC[C@]1(O)C[C@H]2CN(CCc3c([nH]c4ccccc34)[C@@](C(=O)OC)(c3cc4c(cc3OC)N(C=O)[C@H]3[C@@](O)(C(=O)OC)[C@H](OC(C)=O)[C@]5(CC)C=CCN6CC[C@]43[C@@H]65)C2)C1`, for the setting “dose: 2.0 mg/kg/injection, schedule: Q04DX003 (ip), vehicle: water”, the T/C is 100 % of control and 168 % of control.

In the case of `COc1cccc2c1C(=O)c1c(O)c3c(c(O)c1C2=O)C[C@@](O)(/C(C)=N/NC(=O)c1ccc(Cl)cc1)C[C@@H]3OC1CC(N)C(O)C(C)O1` (stereo partly specified), under setting [1], the T/C is 115 % of control and 163 % of control.
